Test results as given in patent US11203633B2, “Polynucleotides encoding antibodies or antigen binding fragments thereof that bind pseudomonas perv” (priority 2011, dated 2021).

Columns and labels:
[1] = tested on: luminescent P. aeruginosa serogroup 05 strain (PAO1.lux); test: Opsonophagocytic killing (OPK) assay, PAO1.lux; format: cell-based, Pseudomonas aeruginosa; settings: Bs4-WT vs Bs4-GL vs Bs4-GLO; FIG. 27A
Method: This example describes the evaluation of prioritized human IgG1 antibodies to promote OPK of P. aeruginosa. […] OPK assays were performed as described in (DiGiandomenico, A., et al., Infect Immun 72, 7012-7021 (2004)), with modifications. Briefly, assays were performed in 96-well plates using 0.025 ml of each OPK component; P. aeruginosa strains; diluted baby rabbit serum; differentiated HL-60 cells; and monoclonal antibody. In some OPK assays, luminescent P. aeruginosa strains, which were constructed as described (Choi, K. H., et al., Nat Methods 2, 443-448 (2005)), were used. Luminescent OPK assays were performed as described above but with determination of relative luciferase units (RLUs) using a Perkin Elmer ENVISION Multilabel plate reader (Perkin Elmer).

[2] = tested on: P. aeruginosa PAO1 strain (PAO1.lux) attachment to A549 cells; test: Cell attachment assay (PAO1.lux to A549 cells); format: cell-based, Pseudomonas aeruginosa; settings: Bs4-WT vs Bs4-GL vs Bs4-GLO; FIG. 27B
Method: Anti-Psl antibodies were added to a confluent monolayer of A549 cells (an adenocarcinoma human alveolar basal epithelial cell line) grown in opaque 96-well plates (Nunc Nunclon Delta). Log-phase luminescent P. aeruginosa PAO1 strain (PAO1.lux) was added at an MOI of 10. After incubation of PAO1.lux with A549 cells at 37° C. for 1 hour, the A549 cells were washed, followed by addition of LB+0.5% glucose. Bacteria were quantified following a brief incubation at 37° C. as performed in the OPK assay described in Example 2. Measurements from wells without A549 cells were used to correct for non-specific binding.

[3] = tested on: P. aeruginosa strains (PAO1, 33356, 6294, 6077, 6206, PA103A); test: Acute pneumonia model in mice, survival; format: in vivo, Pseudomonas aeruginosa
Method: (§1) Antibodies or PBS were administered 24 hours before infection in each model. P. aeruginosa acute pneumonia, keratitis, and thermal injury infection models were performed as described (DiGiandomenico, A., et al., Proc Natl Acad Sci USA 104, 4624-4629 (2007)), with modifications. In the acute pneumonia model, BALB/c mice (The Jackson Laboratory) were infected with P. aeruginosa strains suspended in a 0.05 ml inoculum. In the thermal injury model, CF-1 mice (Charles River) received a 10% total body surface area burn with a metal brand heated to 92° C. for 10 seconds. Animals were infected subcutaneously with P. aeruginosa strain 6077 at the indicated dose. For organ burden experiments, acute pneumonia was induced in mice followed by harvesting of lungs, spleens, and kidneys 24 hours post-infection for determination of CFU.
The in vivo effect of administration of an anti-PcrV antibodies was studied in mice using an acute pneumonia model. Groups of mice were treated with either increasing concentrations of the V2L2 antibody, a positive control anti-PcrV antibody (mAb166), or a negative control (R347), as shown in FIG. 13 (A-B). Groups of mice were also treated with either increasing concentrations of the V2L2 antibody, the PcrV antibody PcrV-02, or a negative control (R347), as shown in FIG. 13 (C-D). Twenty-four hours after treatment, all mice were infected with 5×10^7 CFU (C) Pseudomonas aeruginosa 6294 (06) or (D) PA103A (O11).
Groups of mice were treated with either increasing concentrations of the 11A6, 3G5 or V2L7, the same concentrations of 29D2, 1F3, 1E6, V2L2, LE10, SH3, 4A8, 2H3, or 21F1, increasing concentrations of the 29D2, increasing concentrations of the V2L2, the PcrV antibody PcrV-02, or a negative control (R347), as shown in FIG. 13 (E-H). Mice were injected intraperitoneally (IP) with mAbs 24 hours prior to intranasal infection with Pseudomonas strain 6077 (1×10^6 CFU/animal).

[4] = tested on: P. aeruginosa strains (PAO1, 33356, 6294, 6077, 6206); test: Acute pneumonia model in mice, organ burden (CFU in lung, spleen, kidneys); format: in vivo, Pseudomonas aeruginosa; settings: 6206 9.5×10^5 CFU; 15.0, 5.0 and 1.0 mg/kg; FIG. 25D
Method: as §1
Organ burden of Pseudomonas-infected mice was also studied in response to administration of V2L2. FIG. 14 (A) Mice were treated with either 1 mg/kg R347 (control), or 1 mg/kg, 0.2 mg/kg, or 0.07 mg/kg of V2L2 and then were infected intranasally with 1.2×10^6 cfu of Pseudomonas 6206. FIG. 14 (B) Mice were also treated with either 15 mg/kg R347 (negative control); 15.0 mg/kg, 5.0 mg/kg, or 1.0 mg/kg mAb166 (positive control); or 5.0 mg/kg, 1.0 mg/kg, or 0.2 mg/kg V2L2 and then were infected intranasally with 5.5×10^6 cfu of Pseudomonas 6206. […]

[5] = tested on: P. aeruginosa (6077 exoU+; 6206) lysis of rabbit red blood cells; test: Rabbit red blood cell (RBC) lysis inhibition assay; format: cell-based, Pseudomonas aeruginosa
Method: Percent inhibition of cytotoxicity analysis was analysed for the parental V2L2 mAb, mAb166 (positive control) and R347 (negative control), where the antibodies were administered to cultured broncho-epithelial cell line A549 combined with log-phase P. aeruginosa strain 6077 (exoU+) at a MOI of approximately 10. A549 lysis was assayed by measuring released lactate dehydrogenase (LDH) activity and lysis in the presence of mAbs was compared to wells without mAb to determine percent inhibition. The V2L2 mAb, mAb166 (positive control) and R347 (negative control) were evaluated for their ability to prevent lysis of RBCs, where the antibodies were mixed with log-phase P. aeruginosa 6077 (exoU^+) and washed rabbit red blood cells (RBCs) and incubated for 2 hours at 37°. Intact RBCs were pelleted and the extent of lysis determined by measuring the OD405 of the cell-free supernatant. Lysis in the presence of anti-PcrV mAbs was compared to wells without mAb to determine percent inhibition. The positive control antibody, mAb166, is a previously characterized anti-PcrV antibody (J Infect Dis. 186: 64-73 (2002), Crit Care Med. 40: 2320-2326 (2012)).

B1: Bs4-V2L2-2C: W4-RAD scFv inserted in hinge region of V2L2 IgG; light and heavy chain SEQ ID NOS: 327 and 328 (antibody)
heavy: EMQLLESGGGLVQPGGSLRLSCAASGFTFSSYAMNWVRQAPGEGLEWVSAITISGITAYYTDSVKGRFTISRDNSKNTLYLQMNSLRAGDTAVYYCAKEEFLPGTHYYYGMDVWGQGTTVTVSSASTKGPSVFPLAPSSKSTSGGTAALGCLVKDYFPEPVTVSWNSGALTSGVHTFPAVLQSSGLYSLSSVVTVPSSSLGTQTYICNVNHKPSNTKVDKRVEPKSCGGGGSGGGGSEVQLLESGPGLVKPSETLSLTCNVAGGSISPYYWTWIRQPPGKCLELIGYIHSSGYTDYNPSLKSRVTISGDTSKKQFSLHVSSVTAADTAVYFCARADWDLLHALDIWGQGTLVTVSSGGGGSGGGGSGGGGSGGGGSEIVLTQSPSSLSTSVGDRVTITCRASQSIRSHLNWYQQKPGKAPKLLIYGASNLQSGVPSRFSGSGSGTDFTLTISSLQPEDFATYYCQQSYSFPLTFGCGTKLEIKGGGGSGGGGS[human IgG1 Fc omitted here]
light: AIQMTQSPSSLSASVGDRVTITCRASQGIRNDLGWYQQKPGKAPKLVIYSASTLQSGVPSRFSGSGSGTDFTLSISSLQPDDFATYYCLQDYNYPWTFGQGTKVEIKRTVAAPSVFIFPPSDEQLKSGTASVVCLLNNFYPREAKVQWKVDNALQSGNSQESVTEQDSKDSTYSLSSTLTLSKADYEKHKVYACEVTHQGLSSPVTKSFNRGEC
modifications: Bs4-V2L2-C2 VL
difference in functional activity, opsonophagocytic killing assay [1]: No in vitro difference in functional activities | difference in functional activity, anti-cell attachment assay [2]: No in vitro difference in functional activities | survival Bs4-V2L2-2C vs. Bs2-V2L2, Log-rank test P ([3]; 6206, 0.5 mg/kg, FIG. 21B): 0.0002 | survival Bs4-V2L2-2C vs. Bs3-V2L2, Log-rank test P ([3]; 6206, 0.5 mg/kg, FIG. 21D): < 0.0001 | survival Bs4-V2L2-2C vs. antibody mixture, Log-rank test P ([3]; 6206, 1 mg/kg vs mixture 0.5 mg/kg each, FIG. 21E): 0.0002 | survival Bs4-V2L2-2C vs. Bs2-V2L2, Log-rank test P ([3]; 6206, 1 mg/kg, FIG. 21B): 0.034 | survival Bs4-V2L2-2C vs. antibody mixture, Log-rank test P ([3]; 6206, 2 mg/kg vs mixture 1 mg/kg each, FIG. 21E): 0.0012 | survival activity in comparison to the W4 and V2L2 antibody mixture ([3]; 6206, Bs4-V2L2-2C 2 and 1 mg/kg, FIG. 21E): greater activity in comparison to the antibody mixture at both 1.0 and 0.5 mg/kg | survival activity in comparison to Bs2-V2L2 ([3]; 6206, FIG. 21B): greater activity in comparison to Bs2-V2L2 at both 1.0 and 0.5 mg/kg | survival activity in comparison to Bs2-V2L2 ([3]; 6206, FIG. 21C): appeared to have greater activity in comparison to Bs2-V2L2 at 1.0 mg/kg (results are not statistically significant) | survival activity in comparison to Bs3-V2L2 ([3]; 6206, FIG. 21D): greater activity in comparison to Bs3-V2L2 at 0.5 mg/kg | protection against lethal pneumonia, ranking of constructs ([3]; strain 6206 (ExoU+), 0.1-15 mg/kg, FIG. 21I): most effective in protection against lethal pneumonia | bacterial clearance from the lung [4]: rapid and efficient bacterial clearance was observed from the lung | bacterial dissemination to the spleen and kidneys [4]: bacterial dissemination to the spleen and kidneys were also ablated | inhibition of RBC lysis compared to the parental V2L2 antibody ([5]; 6206, FIG. 19C): inhibited RBC lysis at levels similar to the parental V2L2 antibody | difference in functional activity, RBC lysis anti-cytotoxicity assay ([5]; Bs4-WT vs Bs4-GL vs Bs4-GLO, FIG. 27C): No in vitro difference in functional activities
